Reference: paper PMC4336329 (PLoS ONE, 2015)
In all, about 310,000 compounds went through this assay and about 14,000 (4.5%) showed an effect of 50% or more. Effects have a minus sign here. The list shows a part of the results.
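Note: peak tail current of the secondary pulse compared with the same well before compound.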

Each molecule was assayed against human ether-à-go-go-related gene (hERG) potassium channel (human, UniProt Q12809) (assay: primary screen, population patch clamp on CHO cells stably expressing hERG).
Chain of human ether-à-go-go-related gene (hERG) potassium channel (Q12809 whole entry, looked up): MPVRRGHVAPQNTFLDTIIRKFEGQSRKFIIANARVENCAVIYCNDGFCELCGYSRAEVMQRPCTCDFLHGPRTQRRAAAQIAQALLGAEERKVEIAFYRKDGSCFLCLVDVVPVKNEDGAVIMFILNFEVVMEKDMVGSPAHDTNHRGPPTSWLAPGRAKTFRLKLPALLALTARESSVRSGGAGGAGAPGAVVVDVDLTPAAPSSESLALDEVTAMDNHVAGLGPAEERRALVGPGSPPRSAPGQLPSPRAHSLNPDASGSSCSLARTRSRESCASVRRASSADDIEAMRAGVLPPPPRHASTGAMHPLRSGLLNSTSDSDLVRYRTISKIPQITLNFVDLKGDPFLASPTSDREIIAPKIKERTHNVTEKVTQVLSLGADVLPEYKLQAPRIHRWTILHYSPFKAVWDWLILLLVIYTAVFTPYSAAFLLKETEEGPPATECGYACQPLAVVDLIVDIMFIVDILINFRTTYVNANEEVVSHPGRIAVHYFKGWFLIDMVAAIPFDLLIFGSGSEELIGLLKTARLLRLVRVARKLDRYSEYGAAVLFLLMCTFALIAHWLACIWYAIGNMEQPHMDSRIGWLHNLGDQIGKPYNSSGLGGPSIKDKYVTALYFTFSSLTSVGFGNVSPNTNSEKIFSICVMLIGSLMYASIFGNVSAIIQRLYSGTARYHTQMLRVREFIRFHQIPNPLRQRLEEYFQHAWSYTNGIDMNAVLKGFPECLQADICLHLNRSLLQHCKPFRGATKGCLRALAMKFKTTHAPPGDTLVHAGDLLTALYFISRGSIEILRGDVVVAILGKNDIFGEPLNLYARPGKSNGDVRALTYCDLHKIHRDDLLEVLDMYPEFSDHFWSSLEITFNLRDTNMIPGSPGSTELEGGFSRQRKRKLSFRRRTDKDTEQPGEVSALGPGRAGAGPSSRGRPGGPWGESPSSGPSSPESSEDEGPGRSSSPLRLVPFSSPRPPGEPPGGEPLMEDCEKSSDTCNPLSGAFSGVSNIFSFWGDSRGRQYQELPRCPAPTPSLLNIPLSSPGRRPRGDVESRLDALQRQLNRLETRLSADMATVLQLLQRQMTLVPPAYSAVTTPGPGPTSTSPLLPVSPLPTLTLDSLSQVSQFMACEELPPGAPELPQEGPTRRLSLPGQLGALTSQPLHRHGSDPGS
In the case of `Cc1ccc(N2C(=O)N(CC(=O)NCc3ccccc3Cl)C(=O)C2C)cc1` (centres unmarked), the “hERG current change (%, negative = inhibition) at 10uM” value is reported as 8.4%. For `CN(Cc1ccon1)Cc1cn(C)nc1-c1cccc(Cl)c1`, the “hERG current change (%, negative = inhibition) at 10uM” value was 12.2%. For `Cc1cc(-c2ccc(C)c(S(=O)(=O)NCCc3ccc(S(N)(=O)=O)cc3)c2)on1`, the “hERG current change (%, negative = inhibition) at 10uM” value was -4.87%. `CCCCOC(=O)c1ccc(NC(=O)c2ocnc2C)cc1` was tested, and the “hERG current change (%, negative = inhibition) at 10uM” value was -8.8%. For `COc1cc(/C=N/Nc2cccc(C)c2)ccc1OC(=O)c1ccco1`, the “hERG current change (%, negative = inhibition) at 10uM” value was 23.4%. In the case of `CN(Cc1ccccc1)Cc1nc2c(c(=O)n(C)c(=O)n2C)n1Cc1ccc(Cl)cc1`, the “hERG current change (%, negative = inhibition) at 10uM” value is reported as -30.1%. With `O=C(COc1ccc2ccc(=O)oc2c1)Nc1ccc(CN2CCOCC2)cc1` the “hERG current change (%, negative = inhibition) at 10uM” value was 1.32%. In the case of `c1ccc(-c2nnc(N3CCOCC3)c3ccccc23)cc1`, the “hERG current change (%, negative = inhibition) at 10uM” value is reported as 7.71%. In the case of `C[C@@H](CN1C2=NC[C@H](Cc3ccccc3)N2C[C@H]1Cc1ccc(O)cc1)NC(=O)CCC1CCCCC1`, the “hERG current change (%, negative = inhibition) at 10uM” value is reported as -71.2%. In the case of `COc1ccc(N2CCN(c3cc(C)c4ccc(C)cc4n3)CC2)cc1`, the “hERG current change (%, negative = inhibition) at 10uM” value is reported as -40.5%. With `CC(NC(=O)CSc1n[nH]c(=O)n1C1CC1)C12CC3CC(CC(C3)C1)C2` (centres unmarked) the “hERG current change (%, negative = inhibition) at 10uM” value was -9.71%. `C=CCSc1nnc(NC(=O)c2cccc(S(=O)(=O)N3CCOCC3)c2)s1` was tested, and the “hERG current change (%, negative = inhibition) at 10uM” value was -11.1%. With `C=CCNc1nc(Nc2ccc(OC)cc2)nc(OC)n1` the “hERG current change (%, negative = inhibition) at 10uM” value was -11%. `O=C(O)c1ccccc1C(=O)NCCc1c(C(=O)O)[nH]c2ccc(Cl)cc12` was tested, and the “hERG current change (%, negative = inhibition) at 10uM” value was 7.84%. With `COc1ccccc1NC(=O)c1ccc(COc2ccccc2OC)o1` the “hERG current change (%, negative = inhibition) at 10uM” value was -0.515%. With `CC(=O)N1CCOc2ccc(S(=O)(=O)N3CCCCC3)cc21` the “hERG current change (%, negative = inhibition) at 10uM” value was 11.6%. For `COc1ccc(/C=C/C(=O)OCC(=O)NCCC2=CCCCC2)cc1OC`, the “hERG current change (%, negative = inhibition) at 10uM” value was -22%. With `C/C(Cn1cnc([N+](=O)[O-])n1)=N\NC(=O)c1ccncc1` the “hERG current change (%, negative = inhibition) at 10uM” value was 7.26%. `O=C(CSc1nnc(-c2cccnc2)o1)c1cc2ccccc2oc1=O` was tested, and the “hERG current change (%, negative = inhibition) at 10uM” value was 16.8%. For `CC(C)(C)c1ccc(CNC(=O)C2CCCN2C(=O)Nc2ccccc2)cc1` (centres unmarked), the “hERG current change (%, negative = inhibition) at 10uM” value was 1.67%. With `C=CCOc1ccc2c(c1)c(S(=O)(=O)c1ccc(C)cc1)cn2COC` the “hERG current change (%, negative = inhibition) at 10uM” value was 2.15%. In the case of `CC1CCCN(CCOc2ccc(Br)cc2)C1` (centres unmarked), the “hERG current change (%, negative = inhibition) at 10uM” value is reported as -51.3%. `O=C(Nc1ccccc1OC(F)F)c1cc2c(s1)CCC2` was tested, and the “hERG current change (%, negative = inhibition) at 10uM” value was -16.4%. For `COc1ccc(N2C(=O)C(CC(=O)Nc3ccc(Cl)cc3)N(NC(=O)c3cccc(F)c3)C2=S)cc1` (centres unmarked), the “hERG current change (%, negative = inhibition) at 10uM” value was 14%. For `COc1ccc2nc(SCC(=O)c3c(N)n(C4CC4)c(=O)[nH]c3=O)[nH]c2c1`, the “hERG current change (%, negative = inhibition) at 10uM” value was 7.85%. `CCc1c(C)c2ccc(O)c(CN3CCCC3)c2oc1=O` was tested, and the “hERG current change (%, negative = inhibition) at 10uM” value was 4.46%. For `COc1ccc2c(c1)C=C(CN1CCN(C3CCCC3)C(CCO)C1)CO2` (centres unmarked), the “hERG current change (%, negative = inhibition) at 10uM” value was -68.2%. `CNC(=S)N(CCc1ccc(OC)c(OC)c1)C1CC(=O)N(c2ccccc2)C1=O` (centres unmarked) was tested, and the “hERG current change (%, negative = inhibition) at 10uM” value was 8.95%. In the case of `CC1CC(N(C(=O)C2CC2)c2ccccc2)c2ccccc2N1C(=O)C1CC1` (centres unmarked), the “hERG current change (%, negative = inhibition) at 10uM” value is reported as -1.49%. With `Cc1ccc(C(=O)O)cc1NC(=O)CN1C(=O)C2C3c4ccccc4C(Br)(c4ccccc43)C2C1=O` (centres unmarked) the “hERG current change (%, negative = inhibition) at 10uM” value was 14.4%. With `COc1cc(/C=C(\C#N)C(=O)NC2CCCCC2C)ccc1OS(=O)(=O)c1ccc(C)cc1` (centres unmarked) the “hERG current change (%, negative = inhibition) at 10uM” value was -5.99%. `CCCC1=C(C(=O)OCC)C(c2cccs2)n2ncnc2N1` (centres unmarked) was tested, and the “hERG current change (%, negative = inhibition) at 10uM” value was -0.0931%. In the case of `COc1ccc(CN2CCN(c3cccc(C)c3C)CC2)cc1OC`, the “hERG current change (%, negative = inhibition) at 10uM” value is reported as -72%. For `COCCCNC(=O)CC(NCCCOC)C(=O)O` (centres unmarked), the “hERG current change (%, negative = inhibition) at 10uM” value was 14.7%. `Cc1ccc(C)c(NC(=O)c2cc3ccccn3n2)c1` was tested, and the “hERG current change (%, negative = inhibition) at 10uM” value was -18.7%. `O=c1ccc2cc(S(=O)(=O)N3CCN(c4ccccc4)CC3)ccc2o1` was tested, and the “hERG current change (%, negative = inhibition) at 10uM” value was -0.646%. For `Cc1cc(C)c(O)c(-c2cc(C(=O)Nc3cccnc3)[nH]n2)c1`, the “hERG current change (%, negative = inhibition) at 10uM” value was 5.85%. With `CC[N+](CC)(CCCCS(=O)(=O)[O-])CCNP1(=O)C=C(c2ccccc2)OC(c2ccccc2)=C1` the “hERG current change (%, negative = inhibition) at 10uM” value was 9.75%. In the case of `Cc1[nH]nc2c1C1(C(=O)Nc3ccc([N+](=O)[O-])cc31)C(C#N)=C(N)O2` (centres unmarked), the “hERG current change (%, negative = inhibition) at 10uM” value is reported as 24.9%. For `O=C1CN(Cc2nc3cc(Cl)ccc3c(=O)[nH]2)CCN1`, the “hERG current change (%, negative = inhibition) at 10uM” value was 25.4%. `COc1cc(NC(=O)COc2ccc3c(C)cc(=O)oc3c2C)cc(OC)c1OC` was tested, and the “hERG current change (%, negative = inhibition) at 10uM” value was 20.4%. `CCn1c2ccccc2n2c(=O)c(=O)n(CC(=O)Nc3ccc(C(C)C)cc3)nc12` was tested, and the “hERG current change (%, negative = inhibition) at 10uM” value was 5.64%. For `Brc1ccc(-c2nc(-c3ccncc3)no2)o1`, the “hERG current change (%, negative = inhibition) at 10uM” value was -4.37%. For `CCCc1cc(=O)[nH]c(SCc2ccccc2)n1`, the “hERG current change (%, negative = inhibition) at 10uM” value was 4.36%. With `CN1N=C(C(C)(C)C)CC1=O` the “hERG current change (%, negative = inhibition) at 10uM” value was -0.0653%. With `COCC(=O)Nc1c(C(=O)Nc2ccccc2OC)oc2ccccc12` the “hERG current change (%, negative = inhibition) at 10uM” value was -8.05%. In the case of `NC(=O)Nc1ccccc1C(=O)Nc1ccc2ccccc2c1`, the “hERG current change (%, negative = inhibition) at 10uM” value is reported as 11.5%. With `Cc1ccc2c(C)nc(/N=C(\N)NC(=O)N3c4ccccc4Sc4ccccc43)nc2c1` the “hERG current change (%, negative = inhibition) at 10uM” value was 13.6%. With `COc1cccc(NC(=O)c2ccc(-c3ccccc3[N+](=O)[O-])o2)c1` the “hERG current change (%, negative = inhibition) at 10uM” value was -46.1%. `Cc1cccc(Nc2n[nH]c(=S)s2)c1C` was tested, and the “hERG current change (%, negative = inhibition) at 10uM” value was 19.2%. With `COc1ccc(-n2nc(C(=O)N3CCCCC3)c3ccccc3c2=O)cc1` the “hERG current change (%, negative = inhibition) at 10uM” value was -4.53%. For `CCCCNC(=S)NNC(=O)c1c(C)nc2ccccn12`, the “hERG current change (%, negative = inhibition) at 10uM” value was 21.7%. `CC(=O)N1CCSc2ccc(S(=O)(=O)NCc3ccc(F)cc3)cc21` was tested, and the “hERG current change (%, negative = inhibition) at 10uM” value was -21.4%. In the case of `CCOc1ccc(NC(=S)N2CCN(S(=O)(=O)c3ccc(OC)cc3)CC2)cc1`, the “hERG current change (%, negative = inhibition) at 10uM” value is reported as 4.43%. For `Cc1ccc(S(=O)(=O)NCC(=O)OCc2ccccc2)cc1`, the “hERG current change (%, negative = inhibition) at 10uM” value was -3%. In the case of `O=C(NCC(c1ccco1)N1CCN(c2ccccc2)CC1)c1cccs1` (centres unmarked), the “hERG current change (%, negative = inhibition) at 10uM” value is reported as -14.9%.
